# Results: the supplement of paper PMC8728848
# The other results are listed elsewhere or left out.
# B1: PX9961U-pdi-543-24-543 (Parabacteroides distasonis) (protein)
# chain: EEPVGEFLPGQVESEENIEGIVTGAYAVLDGYYASDAINSGCSNWQFGDVVSDDAYKGGGGTGDQNQIHLMEIFNANPTGIDFEARWAALYEGIKRCNQAIRLLNGSEVKNKEQRLAEMRFLRGHYYFNLKIIYNQIPWIDETLVDPNEYNKKSNIEFSSDQLWEKILEEFSAAYKVLPESQADYGRPTKMAARAYMAKVYLYQSKWKECLEACDEVIQSGKYELFPDFRNVFLPENDNCSEIIFAIQLSINDGSPNNENGSYGDRLLPPGGPYPVYGFLRPTQNLVNAYKTDVKGLPYNDGKDVSENDYVDVRLDHTLARPNIPFMDVQLYDWTPREASVYGPYSPKKRLVSLNSTYYSPIWPYVNALNFYVIRYADLLLWRAEAAIETGDLETGRKYINMIRERAKNTQHVKTMDQSQDAANYKVGVYDEPFKSKNEAVQALRMERRLEMAHEGIRFFDLVRWGVADEVINAYIAKEKVFRSHLQNAHFVKGKHEYFPIPQSMIDICGTEVMKQNPGY
# Columns and labels:
# Assay in all cases: glycan array binding signal (z-score within array); higher = stronger binding
# Conditions in all cases: glycan notation: IUPAC condensed, linker removed
# [1] = target: Neu5Ac(a2-3)Gal(b1-4)GlcNAc(b1-6)GalNAc
# Outline: (§1)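 Glycan array binding is given as a within-array Z-score, which can be read as non-binding when negative. The arrays, 3228 of them, came from the Consortium for Functional Glycomics database and were retained only where the protein sequence was available. Z-scores were averaged across arrays of the same protein sequence at different concentrations or buffers and across linkers.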
# [2] = target: Neu5Ac(a2-3)Gal(b1-4)GlcNAc(b1-6)[Gal(b1-3)]GalNAc
# Outline: as §1
# [3] = target: Neu5Ac(a2-3)Gal(b1-4)GlcNAc(b1-6)[Neu5Ac(a2-3)Gal(b1-3)]GalNAc
# Outline: as §1
# [4] = target: Neu5Ac(a2-3)Gal(b1-4)GlcNAc6S
# Outline: as §1
# [5] = target: Neu5Ac(a2-3)Gal(b1-4)[Fuc(a1-3)]GlcNAc
# Outline: as §1
# [6] = target: Neu5Ac(a2-3)Gal(b1-4)[Fuc(a1-3)]GlcNAc(b1-2)Man
# Outline: as §1
# [7] = target: Neu5Ac(a2-3)Gal(b1-4)[Fuc(a1-3)]GlcNAc(b1-3)Gal
# Outline: as §1
# [8] = target: Neu5Ac(a2-3)Gal(b1-4)[Fuc(a1-3)]GlcNAc(b1-3)Gal(b1-4)GlcNAc
# Outline: as §1
# [9] = target: Neu5Ac(a2-3)Gal(b1-4)[Fuc(a1-3)]GlcNAc(b1-3)Gal(b1-4)[Fuc(a1-3)]GlcNAc(b1-3)Gal(b1-4)[Fuc(a1-3)]GlcNAc
# Outline: as §1
# [10] = target: Neu5Ac(a2-3)Gal(b1-4)[Fuc(a1-3)]GlcNAc(b1-3)GalNAc
# Outline: as §1
# [11] = target: Neu5Ac(a2-3)Gal(b1-4)[Fuc(a1-3)]GlcNAc(b1-6)[Gal(b1-3)]GalNAc
# Outline: as §1
# [12] = target: Neu5Ac(a2-3)Gal(b1-4)[Fuc(a1-3)]GlcNAc(b1-6)[Neu5Ac(a2-3)Gal(b1-3)]GalNAc
# Outline: as §1
# [13] = target: Neu5Ac(a2-3)Gal(b1-4)[Fuc(a1-3)]GlcNAc6S
# Outline: as §1
# [14] = target: Neu5Ac(a2-3)Gal6S(b1-4)GlcNAc
# Outline: as §1
# [15] = target: Neu5Ac(a2-3)Gal6S(b1-4)[Fuc(a1-3)]GlcNAc
# Outline: as §1
# [16] = target: Neu5Ac(a2-3)GalNAc
# Outline: as §1
# [17] = target: Neu5Ac(a2-3)GalNAc(b1-4)GlcNAc
# Outline: as §1
# [18] = target: Neu5Ac(a2-3)[GalNAc(b1-4)]Gal(b1-4)Glc
# Outline: as §1
# [19] = target: Neu5Ac(a2-3)[GalNAc(b1-4)]Gal(b1-4)GlcNAc
# Outline: as §1
# [20] = target: Neu5Ac(a2-3)[GalNAc(b1-4)]Gal(b1-4)GlcNAc(b1-3)GalNAc
# Outline: as §1
# [21] = target: Neu5Ac(a2-3)[Neu5Ac(a2-6)]GalNAc
# Outline: as §1
# [22] = target: Neu5Ac(a2-6)Gal
# Outline: as §1
# [23] = target: Neu5Ac(a2-6)Gal(b1-3)GlcNAc(b1-3)[Gal(b1-4)GlcNAc(b1-6)]Gal(b1-4)Glc
# Outline: as §1
# [24] = target: Neu5Ac(a2-6)Gal(b1-4)Glc
# Outline: as §1
# [25] = target: Neu5Ac(a2-6)Gal(b1-4)GlcNAc
# Outline: as §1
# [26] = target: Neu5Ac(a2-6)Gal(b1-4)GlcNAc(b1-2)Man
# Outline: as §1
# [27] = target: Neu5Ac(a2-6)Gal(b1-4)GlcNAc(b1-2)Man(a1-3)Man(b1-4)GlcNAc(b1-4)GlcNAc
# Outline: as §1
# [28] = target: Neu5Ac(a2-6)Gal(b1-4)GlcNAc(b1-2)Man(a1-3)[Gal(b1-4)GlcNAc(b1-2)Man(a1-6)]Man(b1-4)GlcNAc(b1-4)GlcNAc
# Outline: as §1
# [29] = target: Neu5Ac(a2-6)Gal(b1-4)GlcNAc(b1-2)Man(a1-3)[GlcNAc(b1-2)Man(a1-6)]Man(b1-4)GlcNAc(b1-4)GlcNAc
# Outline: as §1
# [30] = target: Neu5Ac(a2-6)Gal(b1-4)GlcNAc(b1-2)Man(a1-3)[GlcNAc(b1-4)][Neu5Ac(a2-6)Gal(b1-4)GlcNAc(b1-2)Man(a1-6)]Man(b1-4)GlcNAc(b1-4)GlcNAc
# Outline: as §1
# [31] = target: Neu5Ac(a2-6)Gal(b1-4)GlcNAc(b1-2)Man(a1-3)[Man(a1-6)]Man(b1-4)GlcNAc(b1-4)GlcNAc
# Outline: as §1
binder,measurement,setting,value
B1,glycan array binding signal (z-score),[1],-0.154
same,glycan array binding signal (z-score),[2],-0.23
same,glycan array binding signal (z-score),[3],-0.47
same,glycan array binding signal (z-score),[4],-0.332
same,glycan array binding signal (z-score),[5],-0.372
same,glycan array binding signal (z-score),[6],-0.435
same,glycan array binding signal (z-score),[7],-0.335
same,glycan array binding signal (z-score),[8],0.825
same,glycan array binding signal (z-score),[9],-0.269
same,glycan array binding signal (z-score),[10],3.69
same,glycan array binding signal (z-score),[11],0.612
same,glycan array binding signal (z-score),[12],1.28
same,glycan array binding signal (z-score),[13],-0.317
same,glycan array binding signal (z-score),[14],-0.384
same,glycan array binding signal (z-score),[15],-0.472
same,glycan array binding signal (z-score),[16],-0.409
same,glycan array binding signal (z-score),[17],-0.459
same,glycan array binding signal (z-score),[18],-0.33
same,glycan array binding signal (z-score),[19],-0.196
same,glycan array binding signal (z-score),[20],0.622
same,glycan array binding signal (z-score),[21],-0.466
same,glycan array binding signal (z-score),[22],-0.428
same,glycan array binding signal (z-score),[23],-0.282
same,glycan array binding signal (z-score),[24],-0.433
same,glycan array binding signal (z-score),[25],-0.404
same,glycan array binding signal (z-score),[26],-0.368
same,glycan array binding signal (z-score),[27],-0.322
same,glycan array binding signal (z-score),[28],0.343
same,glycan array binding signal (z-score),[29],0.099
same,glycan array binding signal (z-score),[30],-0.368
same,glycan array binding signal (z-score),[31],-0.14
